Method: The solubility in water was determined by UV spectroscopy at 300 nm and 25° C.

solubility in water: 16.7 mg/mL
solubility in water, corresponding thalidomide amount: 11.1 mg thalidomide/ml
Substance: [3-(1,3-dihydro-1,3-dioxo-2H-isoindol-2-yl)-2,6-dioxo-piperidin-1-yl]-methoxycarbonylpropionic acid [Compound 9]

From patent publication US6417197B1, “Acylated n-hydroxy methyl thalidomide prodrugs with immunomodulator action” (Gruenenthal GmbH, priority 1996, dated 2002)
